Measurements taken from publication PMC4336329 (PLoS ONE, 2015).
About 2,200 (0.71%) of roughly 310,000 compounds showed an effect of 50% or more. Effects have a minus sign here. This is one part of the list.

Target: human ether-à-go-go-related gene (hERG) potassium channel (human, UniProt Q12809)
Assay: primary screen, population patch clamp on CHO cells stably expressing hERG

Chain of human ether-à-go-go-related gene (hERG) potassium channel (Q12809 whole entry, looked up): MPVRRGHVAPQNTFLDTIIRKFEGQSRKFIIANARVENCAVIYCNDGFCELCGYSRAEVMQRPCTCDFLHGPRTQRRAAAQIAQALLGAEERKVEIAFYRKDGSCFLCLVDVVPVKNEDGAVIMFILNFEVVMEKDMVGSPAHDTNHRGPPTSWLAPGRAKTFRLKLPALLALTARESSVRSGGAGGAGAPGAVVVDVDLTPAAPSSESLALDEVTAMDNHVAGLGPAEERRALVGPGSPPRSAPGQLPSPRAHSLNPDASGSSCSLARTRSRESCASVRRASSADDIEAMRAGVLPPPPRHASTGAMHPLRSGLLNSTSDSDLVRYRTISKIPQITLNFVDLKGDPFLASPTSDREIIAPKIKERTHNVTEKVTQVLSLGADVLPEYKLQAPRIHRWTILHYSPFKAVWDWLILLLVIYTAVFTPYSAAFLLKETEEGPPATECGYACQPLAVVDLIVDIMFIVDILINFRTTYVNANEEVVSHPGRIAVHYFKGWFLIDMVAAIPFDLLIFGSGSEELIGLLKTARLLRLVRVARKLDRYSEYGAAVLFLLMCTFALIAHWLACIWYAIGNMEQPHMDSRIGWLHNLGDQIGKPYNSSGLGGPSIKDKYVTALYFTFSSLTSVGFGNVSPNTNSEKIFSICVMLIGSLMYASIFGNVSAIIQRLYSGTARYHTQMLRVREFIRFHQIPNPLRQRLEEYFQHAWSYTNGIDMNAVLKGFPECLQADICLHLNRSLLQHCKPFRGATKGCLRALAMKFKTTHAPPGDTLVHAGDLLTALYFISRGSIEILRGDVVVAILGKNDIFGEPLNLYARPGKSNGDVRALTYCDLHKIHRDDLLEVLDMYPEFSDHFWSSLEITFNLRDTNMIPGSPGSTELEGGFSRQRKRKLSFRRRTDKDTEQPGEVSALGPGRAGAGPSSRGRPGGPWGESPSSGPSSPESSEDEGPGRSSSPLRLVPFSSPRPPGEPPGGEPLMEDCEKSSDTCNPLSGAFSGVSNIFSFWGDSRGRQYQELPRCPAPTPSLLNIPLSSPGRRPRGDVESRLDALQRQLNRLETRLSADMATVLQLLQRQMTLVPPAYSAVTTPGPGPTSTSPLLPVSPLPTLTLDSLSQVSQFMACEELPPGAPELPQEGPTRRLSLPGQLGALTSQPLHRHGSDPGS

| Structure (SMILES) | hERG current change (%, negative = inhibition) at 1uM [%] |
| --- | --- |
| CCOC(=O)c1cnn(-c2ccccc2)c1NC(=O)CN1CCCCC1 | 15.3 |
| Cc1ccc(F)cc1NC(=O)c1cccc2nccnc12 | 0.276 |
| O=C(c1ccc(F)cc1)C1CCN(Cc2cn[nH]c2-c2ccc(F)cc2)CC1 | -78.9 |
| Cc1cccc(CN2CCC(CNC(=O)CSc3cc(=O)n(C)c4cc(Cl)ccc34)CC2)c1 | -16.7 |
| COc1ccc(NC(=O)CSc2n[nH]c(N)n2)cc1OC | 14.5 |
| COC(=O)N1C(=O)[C@](c2ccccc2)(C(C)C)N1C(=O)OC | 13.8 |
| O=C(Nc1ccc(-c2cn3ccccc3n2)cc1)c1ccco1 | 3.72 |
| O=[N+]([O-])c1ccccc1/C=C/C=N/n1c(-c2ccccc2F)n[nH]c1=S | 14.2 |
| COc1cccc(N2C(=O)Nc3ccccc3C2(O)C(=O)NCc2ccc3c(c2)OCO3)c1 (centres unmarked) | -9.36 |
| CCC(=O)N(Cc1ccc2c(c1)OCO2)Cc1cc2cc(OC)ccc2[nH]c1=O | -7.88 |
| CC1CCCCN1CCNc1nc(=S)[nH]c2ccccc12 (centres unmarked) | -46.9 |
| CN(CCCOc1ccccc1Br)Cc1ccccc1 | -2.9 |
| C=CCN1N=C(c2ccc(NC(=O)c3ccccc3)cc2)CSC1=O | 13.3 |
| Cc1ccc(N(C)C(=O)c2cc(S(=O)(=O)N3CCCC3)cn2C)cc1 | 11.4 |
| Cc1ccc(-c2nc(N3CCOCC3)s[n+]2-c2ccccc2)cc1.[O-][Cl+3]([O-])([O-])[O-] | 9.64 |
| CN(C)CCCNc1ncnc2sc(-c3ccccc3)cc12.O=C(O)C(=O)O | -9.73 |
| NC(=O)CN1CCN(Cc2ccc3c(c2)OCO3)CC1 | 22.5 |
| CCc1[nH]c(=S)c(C#N)c(-c2ccccc2)c1C(=O)OC | 17.6 |
| COC(=O)c1cc(NC(=O)C23CCC(C)(C(=O)O2)C3(C)C)cc(C(=O)OC)c1 (centres unmarked) | 9.8 |
| Cc1cccc(C(=O)O/N=C(\N)c2cccc([N+](=O)[O-])c2)c1 | 3.03 |
| COc1ccc(OC)c(NC(=O)COC(=O)Cc2ccc(Br)cc2)c1 | 1.61 |
| COCCn1c(SCC(=O)Nc2nnc(C)s2)nnc1-c1ccoc1C | 22.9 |

| Structure (SMILES) | hERG current change (%, negative = inhibition) at 1uM [%] |
| --- | --- |
| CC(=O)Nc1ccc2c(c1)ncn2C1CCCCC1 | -3.63 |
| CC(C)C1NC2(C(=O)c3ccccc3C2=O)C2C(=O)N(c3ccc(F)cc3)C(=O)C12 (centres unmarked) | -1.42 |
| CCOC(=O)c1c(C(=O)OCC)c(C)n(CCc2ccc(OC)c(OC)c2)c1C | 7.1 |
| Cc1ccc(Cl)cc1NC(=S)N1CCCCCC1 | 11.2 |
| COc1cc(C(=O)N2CCN(C(=O)Cc3ccccc3)CC2)cc(OC)c1OC | -1.15 |
| COc1ccc(Nc2nc(-c3cccs3)nc3ccccc23)c(OC)c1 | -2.14 |
| COc1cccc(OC)c1C1=CC(=O)C[C@H](c2ccc3c(c2)OCO3)C1 | 11 |
| CCC(C(=O)Nc1ccc2c(c1)OCCO2)n1c(=O)[nH]c2ccccc2c1=O (centres unmarked) | 12 |
| C/C(=N\O)C1(C)N(O)C(C)(C)C(c2ccc(F)cc2)=[N+]1[O-] (centres unmarked) | 13.8 |
| COc1ccc(Nc2nc(-c3cccnc3)nc3ccccc23)cn1 | 1.82 |
| S=C(NCCN(C1CCCCC1)C1CCCC1)Nc1cccc(Cl)c1 | -33.4 |
| C/C(=N\NC(=S)NCCc1ccccc1)c1ccc(O)cc1O | 11.4 |
| COc1ccc2c(c1OC)C(=O)O[C@H]2[C@@H]1c2cc3c(cc2CCN1C)OCO3 | 10.3 |
| COc1ccc(NS(=O)(=O)c2cc(C(=O)Nc3ccccc3C(=O)O)ccc2C)cc1 | 9.2 |
| CC1(C)CC2CC(C)(CN2S(=O)(=O)c2ccc(F)cc2F)C1 (centres unmarked) | 10 |
| CCOC(=O)C(=CNc1ccc(C(F)(F)F)cc1)C(=O)OCC | 13.3 |
| CCCN(CCC)CCNC(=O)C1c2ccccc2C(=O)N(CCOC)C1c1ccc(F)cc1 (centres unmarked) | 5.06 |
| Cc1ccc(C(C)(C)NC(=O)C2CCC(=O)N(C3CCCCCC3)C2)cc1 (centres unmarked) | 0.0386 |
| Cc1ncc(CO)c2c1Oc1nc(-c3ccccc3)nc(SCC(=O)N3CCCCC3)c1C2 | 12.9 |
| COc1ccccc1NC(=O)CSc1nnc(Cc2ccccc2)o1 | -1.11 |
| CC(=O)c1ccc(NC(=O)CSc2nc3nc(C)cc(C)n3n2)cc1 | -0.696 |
| Cc1ccc2oc(=O)c3cnn(CC(=O)N4CCCCC4C)c3c2c1 (centres unmarked) | 2.28 |
